In a collection of fitness landscapes (doi:10.1016/j.celrep.2020.107928):
In all, about 81,000 sequences were measured (“one-hybrid fitness for binding NBS DNA”: median about -0.1, highest 2% from about 0.36 on). The list shows a part of the results.

B1: Caulobacter ParB omega fusion; a variant is named by its letters at X, in order, B8GW30 (parent)
chain: MESVVVGEPGMSEGRRGLGRGLSALLGEVDAAPAQAPGEQLGGSREAPIEILQRNPDQPRRTFREEDLEDLSNSIREKGVLQPILVRPSPDTAGEYQIVAGERAWRAAQRAGLKTVPIMVRELDDLAVLEIGIIENVQRADLNVLEEALSYKVLMEKFERTQENIAQTIGKSXSHVANXMRLLXLPDEVQSYLVSGELTAXHARAIAAAADPVALAKQIIEGGLSVRETEALARKAPNLSAGKSKGGRPPRVKDTDTQALESDLSSVLGLDVSIDHRGSTGTLTITYATLEQLDDLCNRLTRGI

Variants of: B1
Assay: one-hybrid fitness for binding NBS DNA (the Noc-binding site; scaled: cognate 1, non-cognate 0); higher = stronger binding
Conditions: with NBS DNA site
Method in brief: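 Bacterial one-hybrid selection in E. coli USO rpoZ- hisB- pyrF- with a HIS3 reporter carrying the site 19 bp from the promoter, screening Caulobacter ParB libraries with four specificity codons randomised (NNS). Cells grew 48 hours at 37°C on M9-minus-histidine plus 0.1 mM IPTG and 5 mM 3-AT. Plasmids before and after selection were Illumina-sequenced, three replicate libraries pooled, and variants under 10 reads dropped. Fitness is the log change in variant-to-wild-type read ratio, rescaled to cognate 1, non-cognate 0.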

Variant | one-hybrid fitness for binding NBS DNA
LVPL | ≤ 0.2
AGQR | ≤ 0.2
TVSP | ≤ 0.2
TDGC | ≤ 0.2
QQEE | ≤ 0.2
NMWT | ≤ 0.2
AICG | ≤ 0.2
FLHK | ≤ 0.2
AWID | ≤ 0.2
RHYG | ≤ 0.2
WCKR | ≤ 0.2
DTVH | ≤ 0.2
PETL | ≤ 0.2
SSNT | ≤ 0.2
LMQD | ≤ 0.2
VALN | ≤ 0.2
MPTV | ≤ 0.2
ARSC | ≤ 0.2
PFCR | ≤ 0.2
VHIC | ≤ 0.2
GRCR | ≤ 0.2
WYIC | ≤ 0.2
TSYK | ≤ 0.2
QPRD | ≤ 0.2
TSNN | ≤ 0.2

Variant | one-hybrid fitness for binding NBS DNA
NMFL | ≤ 0.2
LVRS | ≤ 0.2
EITL | ≤ 0.2
RLAL | ≤ 0.2
DNQP | ≤ 0.2
VKHS | ≤ 0.2
ANAA | ≤ 0.2
RCCT | 0.39
TELK | ≤ 0.2
DSGC | ≤ 0.2
PYTF | ≤ 0.2
SAGC | ≤ 0.2
TKLN | ≤ 0.2
PAIE | ≤ 0.2
GSQV | ≤ 0.2
WQVR | ≤ 0.2
PYSR | ≤ 0.2
AWGD | ≤ 0.2
TYSL | ≤ 0.2
AAQY | ≤ 0.2
EISR | ≤ 0.2
NATR | ≤ 0.2
CLVA | ≤ 0.2
TCHG | ≤ 0.2
MRLR | ≤ 0.2

Variant | one-hybrid fitness for binding NBS DNA
PWRT | ≤ 0.2
PVGI | ≤ 0.2
ARLW | ≤ 0.2
LLRN | ≤ 0.2
FPTQ | ≤ 0.2
AQEF | ≤ 0.2
WLSC | ≤ 0.2
EKAG | ≤ 0.2
FNHD | ≤ 0.2
PEPF | ≤ 0.2
RNSA | ≤ 0.2
AGHG | ≤ 0.2
DLFV | ≤ 0.2
LMPV | ≤ 0.2
GIIG | ≤ 0.2
SSHI | ≤ 0.2
AFEC | ≤ 0.2
YTAI | ≤ 0.2
LQAM | ≤ 0.2
SKHW | ≤ 0.2
NEYR | ≤ 0.2
RGIK | ≤ 0.2
CAAG | ≤ 0.2
SIPI | ≤ 0.2
VNSG | ≤ 0.2

Variant | one-hybrid fitness for binding NBS DNA
QNPM | ≤ 0.2
FHTR | ≤ 0.2
TYYQ | ≤ 0.2
PLLT | ≤ 0.2
RLWP | ≤ 0.2
MIPS | ≤ 0.2
VKNA | ≤ 0.2
STHA | ≤ 0.2
SMYG | ≤ 0.2
RMMN | ≤ 0.2
RASC | ≤ 0.2
VRVK | ≤ 0.2
LRHL | ≤ 0.2
YRSC | ≤ 0.2
IPYR | ≤ 0.2
EMTG | ≤ 0.2
SWKM | ≤ 0.2
NRQS | ≤ 0.2
HTHR | ≤ 0.2
QHMS | 0.31
IYKR | 0.241
MISM | ≤ 0.2
GFFV | ≤ 0.2
EMAR | ≤ 0.2
QMCA | ≤ 0.2

Variant | one-hybrid fitness for binding NBS DNA
FSAR | ≤ 0.2
WNVT | ≤ 0.2
HFVG | ≤ 0.2
GLPY | ≤ 0.2
RELL | ≤ 0.2
DPSV | ≤ 0.2
KPKT | ≤ 0.2
TVGG | ≤ 0.2
ECIS | ≤ 0.2
PAWN | ≤ 0.2
QHMH | ≤ 0.2
YLYG | ≤ 0.2
SCSP | ≤ 0.2
RSVI | ≤ 0.2
INNS | ≤ 0.2
NNMI | ≤ 0.2
LTIC | ≤ 0.2
QRQI | 0.291
CLPS | ≤ 0.2
TVMT | ≤ 0.2
ESFR | ≤ 0.2
RMQM | ≤ 0.2
LISW | ≤ 0.2
RVDT | ≤ 0.2
CTPG | ≤ 0.2

Variant | one-hybrid fitness for binding NBS DNA
HEKY | ≤ 0.2
GVTL | ≤ 0.2
KLLK | ≤ 0.2
NVGT | ≤ 0.2
ARVD | ≤ 0.2
IEMT | ≤ 0.2
EQTS | ≤ 0.2
HNYE | ≤ 0.2
KMRH | ≤ 0.2
RIRD | ≤ 0.2
LPAM | ≤ 0.2
GQMR | ≤ 0.2
ANCT | ≤ 0.2
TQCS | ≤ 0.2
RGDE | ≤ 0.2
QEPE | ≤ 0.2
IWNF | ≤ 0.2
YSCA | ≤ 0.2
RYNP | ≤ 0.2
RSYE | ≤ 0.2
TTTS | ≤ 0.2
DGSV | ≤ 0.2
RHIR | ≤ 0.2
TAHE | ≤ 0.2
ENIF | ≤ 0.2

Variant | one-hybrid fitness for binding NBS DNA
GEAR | ≤ 0.2
MRNV | ≤ 0.2
VYHS | ≤ 0.2
INIP | ≤ 0.2
SATS | ≤ 0.2
WIRT | ≤ 0.2
NPSY | ≤ 0.2
WSPS | ≤ 0.2
FPRL | ≤ 0.2
TGDG | ≤ 0.2
GNYG | ≤ 0.2
WHNC | ≤ 0.2
SKMR | ≤ 0.2
TLDV | ≤ 0.2
YRYT | ≤ 0.2
WMGS | ≤ 0.2
QGLW | ≤ 0.2
TEEF | ≤ 0.2
YPSG | ≤ 0.2
LGLS | ≤ 0.2
IVQS | ≤ 0.2
GALS | ≤ 0.2
RNKY | ≤ 0.2
TYEC | ≤ 0.2
AWTS | ≤ 0.2

Variant | one-hybrid fitness for binding NBS DNA
HYHD | ≤ 0.2
MPMR | ≤ 0.2
LAGA | ≤ 0.2
ERLS | ≤ 0.2
NPMC | ≤ 0.2
HFSV | ≤ 0.2
CVTN | ≤ 0.2
RTVV | ≤ 0.2
HSSY | ≤ 0.2
VRGF | ≤ 0.2
AIKL | ≤ 0.2
FPNF | ≤ 0.2
HIPS | ≤ 0.2
NLNK | ≤ 0.2
FVRC | ≤ 0.2
NCNS | ≤ 0.2
HYHY | ≤ 0.2
PWRD | ≤ 0.2
NFCN | ≤ 0.2
RRNH | 0.63
